The supplement of paper PMC3334620
Whole data set: some 33,000 sequences, median “E-score (-0.5 to 0.5)” near -0.041, cut for the highest 2% near 0.37. This is one part of the list.

Biological target: T1, Ecm22 (UniProt Q05958)
T1 sequence: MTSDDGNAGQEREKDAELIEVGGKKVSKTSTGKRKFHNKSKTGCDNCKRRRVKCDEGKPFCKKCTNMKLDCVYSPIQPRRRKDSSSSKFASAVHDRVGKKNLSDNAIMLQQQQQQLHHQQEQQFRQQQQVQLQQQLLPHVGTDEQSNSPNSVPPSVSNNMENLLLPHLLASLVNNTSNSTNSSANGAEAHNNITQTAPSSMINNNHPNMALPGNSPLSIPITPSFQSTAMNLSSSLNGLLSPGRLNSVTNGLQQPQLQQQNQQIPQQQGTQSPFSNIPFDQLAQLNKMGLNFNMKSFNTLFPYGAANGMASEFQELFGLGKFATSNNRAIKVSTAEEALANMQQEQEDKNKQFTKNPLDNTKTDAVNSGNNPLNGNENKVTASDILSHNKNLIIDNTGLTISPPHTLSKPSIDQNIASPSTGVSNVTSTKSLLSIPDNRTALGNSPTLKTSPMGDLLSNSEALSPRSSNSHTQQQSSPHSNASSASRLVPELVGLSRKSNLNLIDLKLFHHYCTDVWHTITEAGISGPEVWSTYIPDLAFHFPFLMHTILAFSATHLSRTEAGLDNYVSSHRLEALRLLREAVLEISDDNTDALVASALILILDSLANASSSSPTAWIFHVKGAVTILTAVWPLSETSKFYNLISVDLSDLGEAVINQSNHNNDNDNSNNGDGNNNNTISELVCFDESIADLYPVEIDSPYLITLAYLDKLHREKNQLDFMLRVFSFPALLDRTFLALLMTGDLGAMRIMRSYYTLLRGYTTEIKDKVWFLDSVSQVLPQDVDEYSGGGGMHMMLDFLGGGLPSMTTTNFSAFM
Experiment: PBM E-score (8-mer binding enrichment) (E-score (-0.5 to 0.5)); higher = stronger / more preferred TF binding; most listed sequences are background and not binding sites
Details: protein concentration: 200 nM; construct: GST-full length
Method in brief: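 PURExpress in vitro transcription/translation supplied GST-tagged yeast transcription factors, either full-length or DNA-binding domain. Applied at about 100-200 nM to universal all-10-mer Agilent arrays double-stranded by primer extension, the bound protein was detected with fluorescent anti-GST. E-scores, modified Wilcoxon-Mann-Whitney statistics, were given by the Universal PBM Analysis Suite to ungapped eight-base words pooled with their reverse complements after masliner normalisation.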

| Sequence | PBM E-score |
| --- | --- |
| CTGCCTGC | -0.232 |
| GTAGCCCA | -0.132 |
| GCAGGGGA | -0.174 |
| CGGAACGC | 0.295 |
| AGCCTGGC | -0.142 |
| CAGGCCAC | -0.18 |
| AGTAGATG | -0.286 |
| CGGGCCCG | 0.2 |
| CCGCTAAG | 0.0409 |
| AGCTCCGA | 0.0611 |
| CAGACGCG | -0.112 |
| ACCGGGAA | 0.106 |
| CTATTCAA | -0.102 |
| AGGGGTAC | 0.00941 |
| GTGACACA | -0.102 |
| GGGAGTAA | -0.144 |
| ACTCATTG | 0.0195 |
| AGCTTGGC | -0.133 |
| AGCACGCG | -0.0107 |
| AGAGCTGG | -0.179 |
| GGGGCCAA | -0.0478 |
| GACTGTAA | 0.0156 |
| GGAGCCCA | -0.332 |
| GCCTTTGA | -0.214 |
| GTAGTTAA | 0.0572 |

| Sequence | PBM E-score |
| --- | --- |
| ACTTAGGA | 0.00223 |
| CTCATGTC | -0.059 |
| GCAGGTGA | -0.189 |
| AACGGCTT | 0.0968 |
| AGCCATGG | -0.183 |
| TACGGCTA | 0.247 |
| AGCCTTCC | -0.286 |
| ATCGGTTC | 0.0329 |
| CAGATGAG | -0.24 |
| CCGATCAC | 0.151 |
| CTAGGGCC | -0.216 |
| TAAACCGA | 0.232 |
| GTTCGTCA | 0.0919 |
| AGCCCTGC | -0.175 |
| AGGGCCAT | -0.166 |
| CGTGGGGA | 0.0544 |
| ACCGCTTC | -0.157 |
| CCAGGTGA | -0.0943 |
| AGGGGGAC | -0.231 |
| ACCTAACC | 0.0466 |
| CCAATCTC | -0.085 |
| ATGGTATG | -0.22 |
| GTATCTTA | 0.196 |
| CCAAATAA | -0.101 |
| AAATCAAG | 0.136 |

| Sequence | PBM E-score |
| --- | --- |
| ACATGACA | -0.0361 |
| CTTGATGC | -0.13 |
| AGATGGAG | -0.136 |
| AGGTGCCA | -0.166 |
| CTTTCTCA | 0.00463 |
| GAAAAAAC | 0.198 |
| ATAATGAT | 0.00868 |
| GCGGTAGC | -0.0139 |
| ATACCACA | 0.0238 |
| ATACGGTA | 0.383 |
| CACCTGGC | -0.216 |
| GAGTAGGC | -0.185 |
| TCGGCAGA | -0.0541 |
| ACCCAACC | -0.0317 |
| AAGAACTT | -0.0668 |
| GAGACGAA | 0.26 |
| CTTCGTTC | 0.47 |
| CGAGACCC | 0.196 |
| CGTGTTCC | 0.0444 |
| GCGTCTCC | -0.0115 |
| AAGTGAGA | -0.0638 |
| CGCTCGTA | 0.467 |
| TAACTGCA | -0.137 |
| CTACAATA | -0.0169 |
| GCTACAAC | -0.199 |

| Sequence | PBM E-score |
| --- | --- |
| TAGCGGGA | 0.0464 |
| TCGATGAA | -0.00675 |
| ATTCTCTC | -0.0272 |
| ATCATCAA | 0.0769 |
| CGGTCTCA | -0.0713 |
| GTCCCTCA | -0.154 |
| AGTTAAAT | -0.125 |
| GTCAAGCA | -0.324 |
| AGTCGCTG | -0.108 |
| TAAGTGGA | 0.107 |
| ATTCAACC | -0.0471 |
| ACAGTAAG | -0.0829 |
| CCGGAAGC | -0.0224 |
| ATCTCCAA | -0.224 |
| ACGAGGCT | 0.382 |
| CTAATGGA | -0.0389 |
| CTATATTC | 0.132 |
| CCCCGATC | -0.116 |
| GGGCATGA | -0.207 |
| AACGAGGT | 0.447 |
| GTGTTTTA | 0.0978 |
| CCTCCGGA | -0.0181 |
| ATTAACCA | -0.282 |
| AACACCAG | -0.259 |
| CCGAGCAG | 0.184 |

| Sequence | PBM E-score |
| --- | --- |
| TAGGGGGA | -0.252 |
| TTTCAAAA | -0.148 |
| AACTGGTA | -0.00065 |
| TCAGCAGA | -0.0491 |
| GTTCCGAA | 0.295 |
| AGTACACT | 0.0203 |
| ACCTCGGG | 0.206 |
| GAGGGTAA | -0.0594 |
| GTTTTATA | 0.287 |
| ACGATTCT | 0.232 |
| ACTCAATG | -0.0716 |
| GACAGATC | -0.0475 |
| ACAAAACC | 0.133 |
| AACTCCCT | -0.177 |
| CATTTATC | -0.0951 |
| CTGCTCTC | -0.0471 |
| GCATCTAC | -0.134 |
| GACGACCC | -0.108 |
| CGCCGTAC | 0.408 |
| ACTCCGAG | -0.0421 |
| GACTCAGC | -0.146 |
| ACTCAGTA | 0.163 |
| CAACGCCG | -0.036 |
| CCACAAGC | -0.174 |
| CCGTGTAA | 0.00985 |

| Sequence | PBM E-score |
| --- | --- |
| AAGGCACC | -0.256 |
| CTACTCAA | -0.154 |
| CAGCTTTC | -0.16 |
| GCGGGGCA | -0.136 |
| AACAGAAG | -0.111 |
| TAAGGCCA | -0.0816 |
| GCGGTGAC | -0.154 |
| CTACGCGC | -0.0164 |
| GCGATTGA | -0.0601 |
| ACAGTTCT | -0.0264 |
| CGAGCAAG | 0.0574 |
| TCTGCGAA | -0.0512 |
| ACGTGTCA | -0.0367 |
| GCCTATCA | -0.123 |
| ATGTGATC | 0.16 |
| CGTATAAA | 0.477 |
| GCGGGGGA | -0.233 |
| ATCACTTG | -0.0209 |
| GGTCGCAA | 0.196 |
| CCATCACC | -0.139 |
| ATATAGGA | -0.00966 |
| CAGCGTAC | 0.281 |
| CTCCTTTC | -0.229 |
| AAGCTTTA | 0.135 |
| ACCGTGTC | -0.124 |

| Sequence | PBM E-score |
| --- | --- |
| CCAAGGCA | -0.0888 |
| GACCCAAC | -0.139 |
| ACACTTCC | -0.209 |
| AATGTCGC | 0.104 |
| CTCCGGCA | 0.0745 |
| GGGTCGAC | -0.168 |
| ATTTCTCA | -0.172 |
| TCAAATAA | -0.00224 |
| AGGGTATA | 0.0742 |
| ATGGGTTC | -0.124 |
| ACTGTAGA | 0.0469 |
| CGGGGTAC | 0.216 |
| CAGGTCGC | -0.0308 |
| AAGATCTT | -0.0828 |
| CTCTGCAG | -0.0996 |
| CGGCGTCA | -0.0357 |
| CTTTTTAA | -0.158 |
| CCCTTGAC | -0.229 |
| CGATTTCA | -0.00627 |
| CAGGACTA | -0.166 |
| CAACTATG | -0.117 |
| CGTTTCCA | 0.254 |
